# Inconclusive means that the source gave no clear call. Such entries were picked first, then a sample of the others. Where a call stands in place of a potency, no number is given. For some of these results: Where the call is inconclusive, the potency comes from a doubtful curve fit. Activity calls are given as the source filed them. Unless noted, the call rests on the fitted dose curve; in most records, active means well fitted curve in the direction sought with a large enough effect in the repeat runs; inconclusive means weak or mixed curves; inactive means no such curve, though single readings can be large; an effect the other way counts as inactive or inconclusive.
# Experiments:
# [1] = qHTS assay to identify small molecule agonists of the farnesoid-X-receptor (FXR) signaling pathway - cell viability counter screen (AID 743218); settings: FXR-bla HEK293T viability, CellTiter-Glo luminescence, 16 h; viability change, negative = cytotoxic: at 62.6 µM (top of the series) unless noted; further: nearly all actives have a fitted effect of over 45% in size; further: potency means the concentration at half of the fitted maximal effect
# How it was run: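 FXR-UAS-bla HEK 293T cells exposed to compounds for 16 h at 37C. Cytotoxicity read in the same wells by CellTiter-Glo luminescence after 30 min at room temperature, following the beta-lactamase FRET read.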
# [2] = qHTS assay to identify aromatase inhibitors - cell viability counter screen (AID 743084); settings: MCF-7 aro ERE viability, CellTiter-Fluor, 24 h; activity change, negative = cytotoxicity: at 70.3 µM (top of the series) unless noted;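 further: cells stimulated with testosterone during compound exposure; nearly all actives have a fitted effect of over 55% in size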; further: potency means the concentration at half of the fitted maximal effect
# [3] = qHTS assay to identify small molecule antagonists of the peroxisome proliferator-activated receptor delta (PPARd) signaling pathway - cell viability counter screen (AID 743213); settings: PPARd-bla HEK293H viability, CellTiter-Glo luminescence, 17 h; viability change, negative = cytotoxic: at 62 µM (top of the series) unless noted; further: nearly all actives have a fitted effect of over 50% in size; further: potency means the concentration at half of the fitted maximal effect
# How it was run: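 Luminescence from CellTiter-Glo, added after the bla read and incubated 30 min at room temperature, gives viability of HEK293H PPARd-bla cells exposed to compounds for 17 h at 37 C with 300 nM L165041.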
# [4] = qHTS RealTime-Glo MT Cell Viability Assay in HEK293 cells - 32 hour (AID 1224868); further: nearly all actives have a fitted effect of over 50% in size; further: potency means the concentration at half of the fitted maximal effect
# How it was run: (§1)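 Cells + reagent dispensed (600 cells/well, HEK293) → 5 h at 37 C/5% CO2 → 23 nL compound in DMSO pinned → 40 h at 37 C → luminescence read at 0, 8, 16, 24, 32, 40 h.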
# [5] = qHTS RealTime-Glo MT Cell Viability Assay in HEK293 cells - 24 hour (AID 1224886); further: potency means the concentration at half of the fitted maximal effect; nearly all actives have a fitted effect of over 50% in size
# How it was run: as §1
# [6] = target: Estrogen receptor beta (Homo sapiens) (UniProt Q92731); test: qHTS assay to identify small molecule agonists of the estrogen receptor beta (ER-beta) signaling pathway (AID 1259377; active means well fitted activation curve with a large enough effect in the signal ratio in the repeat runs, not every such curve was filed as active; inconclusive means weak or mixed curves, or effect the other way; the % refers to the signal ratio; further: potency means the concentration at half of the fitted maximal effect); settings: ER-beta-UAS-bla HEK293T, beta-lactamase FRET ratio, 16 h; activation: at 92.4 µM (top of the series) unless noted
# UniProt Q92731, sequence (Q92731 whole entry, looked up, the tested form may be a part): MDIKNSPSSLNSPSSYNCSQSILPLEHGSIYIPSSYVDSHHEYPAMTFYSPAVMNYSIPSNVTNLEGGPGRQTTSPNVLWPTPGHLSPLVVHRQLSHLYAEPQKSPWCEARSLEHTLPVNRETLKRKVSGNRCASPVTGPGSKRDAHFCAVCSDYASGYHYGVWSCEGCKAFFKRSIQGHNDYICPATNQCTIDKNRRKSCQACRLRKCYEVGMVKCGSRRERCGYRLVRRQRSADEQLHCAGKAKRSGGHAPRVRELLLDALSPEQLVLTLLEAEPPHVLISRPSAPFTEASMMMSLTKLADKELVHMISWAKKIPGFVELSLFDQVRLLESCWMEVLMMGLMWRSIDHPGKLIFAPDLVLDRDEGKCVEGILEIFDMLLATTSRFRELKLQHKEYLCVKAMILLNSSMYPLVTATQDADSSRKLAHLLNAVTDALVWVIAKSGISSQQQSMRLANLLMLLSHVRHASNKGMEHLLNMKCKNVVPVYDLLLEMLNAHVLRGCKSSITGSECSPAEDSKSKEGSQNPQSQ
# How it was run: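 Agonist mode cell assay in GripTite HEK293T cells expressing an ER-beta fusion that drives beta-lactamase from an Upstream Activator Sequence; 16 hr compound exposure at 37C, then 2 h LiveBLAzer B/G FRET substrate at room temperature, fluorescence read-out.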
# [7] = Human pregnane X receptor (PXR) small molecule agonists, qHTS cell viability counter screen (AID 1346977); further: nearly all actives have a fitted effect of over 50% in size; further: potency means the concentration at half of the fitted maximal effect
# How it was run: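 Cytotoxicity counter screen run in the same wells as the PXR luciferase assay, using PXR-Luc HepG2 cells in charcoal-stripped serum medium. Viability: CellTiter-Fluor fluorescence after 24hr compound treatment.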
# [8] = target: Nuclear receptor subfamily 1 group I member 2 (Homo sapiens) (UniProt O75469); test: Human pregnane X receptor (PXR) small molecule agonists, qHTS assay (AID 1346982); further: nearly all actives have a fitted effect of over 35% in size; further: potency means the concentration at half of the fitted maximal effect
# UniProt O75469, sequence (O75469 whole entry, looked up): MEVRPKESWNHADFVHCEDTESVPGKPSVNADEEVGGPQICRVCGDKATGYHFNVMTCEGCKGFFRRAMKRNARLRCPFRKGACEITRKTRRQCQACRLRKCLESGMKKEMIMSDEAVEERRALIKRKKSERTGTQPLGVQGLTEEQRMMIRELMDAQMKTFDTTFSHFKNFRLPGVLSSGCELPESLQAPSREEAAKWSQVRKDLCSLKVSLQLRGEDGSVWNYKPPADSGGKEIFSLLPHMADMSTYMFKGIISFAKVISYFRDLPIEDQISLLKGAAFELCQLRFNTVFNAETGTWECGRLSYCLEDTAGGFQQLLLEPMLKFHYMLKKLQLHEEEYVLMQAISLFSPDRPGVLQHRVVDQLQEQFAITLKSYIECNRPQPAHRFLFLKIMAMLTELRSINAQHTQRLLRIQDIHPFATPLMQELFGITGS
# How it was run: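 PXR-Luc HepG2 reporter cells (CYP3A4-driven luciferase) in 5% charcoal-stripped FBS medium, plated 5 h before compound addition, then treated 24 h at 37C. Luciferase read by ONE-Glo luminescence after 30 min at room temperature.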
# [9] = qHTS assay to identify small molecule antagonists of the estrogen receptor alpha (ER-alpha) signaling pathway using the BG1 cell line (AID 743080; calls by dose curve;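 further: BG1 cells stimulated with 17beta-estradiol alongside compound; nearly all actives have a fitted effect of over 25% in size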; further: potency means the concentration at half of the fitted maximal effect); settings: BG1Luc4E2 ERE-luciferase antagonist mode, luminescence; activity change, negative = inhibition: at 70.3 µM (top of the series) unless noted
# How it was run: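 BG1Luc4E2, endogenous ER-alpha, 4xERE-luc; 5 d charcoal-stripped FBS, phenol red free; 24 h plating; cpd + 17beta-estradiol 21.5 h, 37 C/5% CO2; CellTiter-Fluor viability 30 min, then ONE-Glo luciferase 30 min RT.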
# [10] = target: Progesterone receptor (Homo sapiens) (UniProt P06401); test: qHTS assay to identify small molecule agonists of the progesterone receptor (PR) signaling pathway (AID 1346784; calls by dose curve; further: nearly all actives have a fitted effect of over 30% in size); settings: PR-UAS-bla HEK293T, beta-lactamase FRET ratio, 16 h; activation: at 92.4 µM (top of the series) unless noted
# UniProt P06401, sequence (P06401 whole entry, looked up): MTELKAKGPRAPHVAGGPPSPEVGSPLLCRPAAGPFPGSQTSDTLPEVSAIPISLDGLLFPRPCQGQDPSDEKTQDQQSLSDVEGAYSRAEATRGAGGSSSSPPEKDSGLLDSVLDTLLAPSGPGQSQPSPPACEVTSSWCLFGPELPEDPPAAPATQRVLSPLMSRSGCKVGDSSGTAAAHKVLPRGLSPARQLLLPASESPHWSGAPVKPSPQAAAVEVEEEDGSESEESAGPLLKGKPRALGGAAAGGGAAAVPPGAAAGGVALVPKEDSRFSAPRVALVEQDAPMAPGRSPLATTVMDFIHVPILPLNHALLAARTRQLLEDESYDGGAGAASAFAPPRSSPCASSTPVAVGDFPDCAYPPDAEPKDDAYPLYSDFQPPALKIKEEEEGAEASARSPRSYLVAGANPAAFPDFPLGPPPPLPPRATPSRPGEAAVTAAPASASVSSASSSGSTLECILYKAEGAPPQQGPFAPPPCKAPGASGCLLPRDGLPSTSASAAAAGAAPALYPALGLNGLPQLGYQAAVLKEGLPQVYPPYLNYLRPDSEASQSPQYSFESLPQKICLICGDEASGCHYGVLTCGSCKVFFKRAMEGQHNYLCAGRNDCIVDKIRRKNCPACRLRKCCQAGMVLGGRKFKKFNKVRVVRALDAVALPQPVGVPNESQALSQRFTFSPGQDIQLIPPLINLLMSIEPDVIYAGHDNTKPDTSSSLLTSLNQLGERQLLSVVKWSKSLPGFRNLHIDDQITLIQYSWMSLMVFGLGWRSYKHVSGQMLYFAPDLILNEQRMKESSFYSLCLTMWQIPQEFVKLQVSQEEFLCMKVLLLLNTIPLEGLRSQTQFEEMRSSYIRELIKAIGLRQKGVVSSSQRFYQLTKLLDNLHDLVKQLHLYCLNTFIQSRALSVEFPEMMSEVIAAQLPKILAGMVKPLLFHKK
# How it was run: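 Cells (PR-UAS-bla HEK 293T, GripTite) were plated in assay medium containing 2% charcoal-stripped FBS and incubated 6 hr. Test compounds in DMSO were added for 16 hr at 37C. FRET substrate was then loaded for 2 hr at room temperature before fluorescence reading.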
# [11] = qHTS assay to identify small molecule antagonists of the estrogen receptor alpha (ER-alpha) signaling pathway - cell viability counter screen (AID 743074; calls by dose curve;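 further: HEK293 cells carrying ER-alpha-UAS-bla reporter stimulated with 17beta-estradiol; nearly all actives have a fitted effect of over 45% in size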; further: potency means the concentration at half of the fitted maximal effect)
# [12] = qHTS assay for small molecule activators of the heat shock response signaling pathway (AID 743210; active means well fitted activation curve with a large enough effect in the signal ratio in the repeat runs, with a control signal flat, not every such curve was filed as active; inconclusive means weak or mixed curves; the % refers to the signal ratio; further: potency means the concentration at half of the fitted maximal effect;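 on activation: HeLa cells with beta-lactamase reporter driven by heat shock elements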); settings: HeLa HSE-bla reporter, beta-lactamase ratio, 5 h; activation: at 62.6 µM (top of the series) unless noted
# How it was run: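 In HSE-bla HeLa cells, 5 h compound incubation (37 C) precedes addition of LiveBLAzer B/G substrate; after 2.5 h at room temperature, fluorescence intensity indicates reporter induction.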
# [13] = target: Peroxisome proliferator-activated receptor delta (Homo sapiens) (UniProt Q03181); test: qHTS assay to identify small molecule antagonists of the peroxisome proliferator-activated receptor delta (PPARd) signaling pathway (AID 743215; active means well fitted inhibition curve with a large enough effect in the signal ratio in the repeat runs, not every such curve was filed as active; inconclusive means weak or mixed curves, or effect the other way; inactive means no such curve, though single readings can be large or run the other way; the % refers to the signal ratio;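 further: cells stimulated with agonist L165041 at 300 nM final during compound exposure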); settings: HEK293H PPARd-UAS-bla, beta-lactamase FRET ratio, antagonist, 17 h; ratio activity, negative = inhibition: at 62 µM (top of the series) unless noted
# UniProt Q03181, sequence (Q03181 whole entry, looked up): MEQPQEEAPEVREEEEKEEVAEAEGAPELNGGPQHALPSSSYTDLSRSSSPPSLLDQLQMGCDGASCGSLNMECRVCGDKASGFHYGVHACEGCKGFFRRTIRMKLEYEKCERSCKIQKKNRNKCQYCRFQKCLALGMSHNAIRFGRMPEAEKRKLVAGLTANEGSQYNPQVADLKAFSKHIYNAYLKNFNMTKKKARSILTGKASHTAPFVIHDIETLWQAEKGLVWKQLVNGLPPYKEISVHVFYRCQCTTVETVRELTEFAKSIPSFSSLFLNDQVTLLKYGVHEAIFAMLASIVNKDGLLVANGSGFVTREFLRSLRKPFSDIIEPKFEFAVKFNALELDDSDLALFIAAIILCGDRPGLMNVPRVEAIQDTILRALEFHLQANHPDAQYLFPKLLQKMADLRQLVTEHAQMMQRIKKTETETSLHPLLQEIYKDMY
# How it was run: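 PPARd-bla HEK293H cells (UAS-bla reporter) preincubated 5 h, then given compound plus 300 nM final L165041 agonist for 17 h at 37 C. Beta-lactamase activity read by LiveBLAzer B/G FRET substrate fluorescence after 2 h at room temperature.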
# [14] = target: Luciferin 4-monooxygenase (Photinus pyralis) (UniProt P08659); test: qHTS assay to identify small molecule inhibitors of firefly luciferase (AID 1224835); further: nearly all actives have a fitted effect of over 25% in size
# UniProt P08659, sequence (P08659 whole entry, looked up): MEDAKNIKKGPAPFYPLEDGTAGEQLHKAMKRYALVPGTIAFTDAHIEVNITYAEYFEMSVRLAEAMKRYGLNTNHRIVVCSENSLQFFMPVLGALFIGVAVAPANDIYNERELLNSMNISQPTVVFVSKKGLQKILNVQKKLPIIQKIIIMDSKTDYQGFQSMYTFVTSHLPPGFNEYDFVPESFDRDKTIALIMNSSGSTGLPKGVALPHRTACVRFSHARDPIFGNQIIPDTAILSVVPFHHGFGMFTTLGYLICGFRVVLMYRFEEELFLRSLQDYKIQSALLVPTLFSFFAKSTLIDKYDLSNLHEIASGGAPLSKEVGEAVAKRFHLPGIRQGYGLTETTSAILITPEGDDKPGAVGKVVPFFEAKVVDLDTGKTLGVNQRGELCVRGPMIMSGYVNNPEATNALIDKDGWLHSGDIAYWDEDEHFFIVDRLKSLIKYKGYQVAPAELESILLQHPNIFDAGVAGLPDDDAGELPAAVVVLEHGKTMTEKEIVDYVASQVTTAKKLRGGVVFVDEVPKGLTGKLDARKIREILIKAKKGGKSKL
# How it was run: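 Inhibition of purified Photinus luciferase is measured by luminescence. Substrate levels (D-luciferin, ATP) sit at their KM values. Each compound is tested in a concentration series.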
# [15] = qHTS assay to identify small molecule agonists of the estrogen receptor beta (ER-beta) signaling pathway - cell viability counter screen (AID 1259380); further: nearly all actives have a fitted effect of over 30% in size; further: potency means the concentration at half of the fitted maximal effect
# How it was run: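 ER-beta-UAS-bla HEK293T cells in medium with 2% charcoal-stripped FBS, pre-incubated 6 hr, then treated 16 hr at 37C. Cytotoxicity read in the same wells by CellTiter-Glo luminescence after 30 min at room temperature.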
# [16] = target: Aryl hydrocarbon receptor (Homo sapiens) (UniProt P35869); test: qHTS assay to identify small molecule that activate the aryl hydrocarbon receptor (AhR) signaling pathway (AID 743085); further: nearly all actives have a fitted effect of over 15% in size; further: potency means the concentration at half of the fitted maximal effect;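 on activation: HG2L7.5c1 human HepG2 liver cells with stably integrated DRE-driven firefly reporter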
# UniProt P35869, sequence (P35869 whole entry, looked up): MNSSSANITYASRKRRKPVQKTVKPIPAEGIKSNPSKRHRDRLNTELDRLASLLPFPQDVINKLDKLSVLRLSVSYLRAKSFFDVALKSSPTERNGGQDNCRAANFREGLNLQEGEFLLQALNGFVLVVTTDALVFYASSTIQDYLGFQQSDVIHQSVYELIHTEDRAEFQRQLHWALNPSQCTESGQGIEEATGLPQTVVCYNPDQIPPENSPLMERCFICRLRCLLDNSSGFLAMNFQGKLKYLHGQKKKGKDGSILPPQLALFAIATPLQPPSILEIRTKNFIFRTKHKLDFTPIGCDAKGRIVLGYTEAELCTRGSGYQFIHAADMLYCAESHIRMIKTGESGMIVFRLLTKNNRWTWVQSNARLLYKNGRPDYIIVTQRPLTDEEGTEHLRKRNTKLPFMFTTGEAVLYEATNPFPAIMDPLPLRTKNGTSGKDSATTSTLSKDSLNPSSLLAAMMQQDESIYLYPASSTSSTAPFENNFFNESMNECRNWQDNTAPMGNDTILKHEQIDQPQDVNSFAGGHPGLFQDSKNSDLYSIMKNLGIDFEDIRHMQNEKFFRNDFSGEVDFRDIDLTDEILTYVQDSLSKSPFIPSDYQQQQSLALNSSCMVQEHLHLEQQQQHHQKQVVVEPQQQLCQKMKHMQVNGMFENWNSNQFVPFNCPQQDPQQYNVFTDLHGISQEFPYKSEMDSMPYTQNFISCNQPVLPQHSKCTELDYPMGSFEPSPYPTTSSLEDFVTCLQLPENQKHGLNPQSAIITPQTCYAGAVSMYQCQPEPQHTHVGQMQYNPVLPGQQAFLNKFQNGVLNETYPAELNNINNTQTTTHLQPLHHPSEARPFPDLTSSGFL
# How it was run: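 Compounds were tested in HepG2 hepatocellular carcinoma cells harbouring a stably integrated luciferase gene under control of 20 DREs. Increased reporter signal after 24 h treatment at 37C was taken as AhR activation.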
# [17] = qHTS assay to identify small molecule antagonists of the vitamin D receptor (VDR) signaling pathway - cell viability counter screen (AID 743225); settings: VDR-bla HEK293T viability, CellTiter-Glo luminescence, 16 h; viability change, negative = cytotoxic: at 61 µM (top of the series) unless noted; further: nearly all actives have a fitted effect of over 50% in size; further: potency means the concentration at half of the fitted maximal effect
# How it was run: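 HEK293T VDR-bla; cpd + 1a,25-(OH)2D3 3 nM final, 16 h 37C/5% CO2; B/G FRET substrate 2 h RT; then CellTiter-Glo 30 min RT, luminescence.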
# [18] = target: Thyrotropin receptor (Homo sapiens) (UniProt P16473); test: qHTS assay to identify small molecule agonists of the thyroid stimulating hormone receptor (TSHR) signaling pathway (AID 1224843; calls by dose curve; further: potency means the concentration at half of the fitted maximal effect; nearly all actives have a fitted effect of over 45% in size); settings: TSHR-HEK293 cells, cAMP HTRF, agonist mode, 30 min; activation: at 92.4 µM (top of the series) unless noted
# How it was run: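 HEK293 cells stably bearing the thyrotropin receptor were plated at 800 cells/well and challenged with compound (30 min, RT). Accumulated cAMP was quantified via cAMP-d2 competing for cryptate-tagged antibody.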
# [19] = qHTS assay for identifying genotoxic compounds that show differential cytotoxicity against isogenic chicken DT40 cell lines with known DNA damage response pathways - Rad54/Ku70 mutant cell line (AID 743015); settings: DT40 Rad54/Ku70 mutant viability, CellTiter-Glo, 40 h; activity change, negative = cytotoxicity: at 66.8 µM (top of the series) unless noted; further: potency means the concentration at half of the fitted maximal effect; nearly all actives have a fitted effect of over 60% in size
# [20] = target: Estrogen receptor (Homo sapiens) (UniProt P03372); test: qHTS assay to identify small molecule antagonists of the estrogen receptor alpha (ER-alpha) signaling pathway (AID 743069; active means well fitted curve in the direction sought with a large enough effect in the signal ratio in the repeat runs, not every such curve was filed as active; inconclusive means weak or mixed curves, or effect the other way; inactive means no such curve, though single readings can be large or run the other way; the % refers to the signal ratio); settings: HEK293 ER-alpha-UAS-bla, beta-lactamase ratio, antagonist mode; activity, negative = inhibition: at 69.4 µM (top of the series) unless noted
# UniProt P03372, sequence (P03372 whole entry, looked up): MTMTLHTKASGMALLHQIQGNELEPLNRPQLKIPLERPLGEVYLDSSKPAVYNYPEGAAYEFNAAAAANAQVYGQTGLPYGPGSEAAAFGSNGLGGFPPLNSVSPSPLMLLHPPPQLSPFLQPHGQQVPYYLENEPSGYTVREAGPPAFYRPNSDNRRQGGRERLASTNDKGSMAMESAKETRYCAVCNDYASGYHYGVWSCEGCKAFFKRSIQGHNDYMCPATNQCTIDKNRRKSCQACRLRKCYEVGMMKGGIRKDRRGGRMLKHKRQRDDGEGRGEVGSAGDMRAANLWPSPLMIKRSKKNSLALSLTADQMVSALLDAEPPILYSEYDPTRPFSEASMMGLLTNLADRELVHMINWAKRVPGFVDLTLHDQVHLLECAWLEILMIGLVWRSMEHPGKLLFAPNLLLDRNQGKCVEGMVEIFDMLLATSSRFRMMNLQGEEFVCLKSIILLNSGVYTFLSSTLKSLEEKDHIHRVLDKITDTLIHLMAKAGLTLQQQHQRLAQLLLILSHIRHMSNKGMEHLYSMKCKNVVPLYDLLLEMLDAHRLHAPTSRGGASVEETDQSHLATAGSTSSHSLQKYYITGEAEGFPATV
# How it was run: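 Compound effects are measured against 17beta-estradiol stimulation in HEK293 cells with a UAS-controlled beta-lactamase reporter for ER-alpha. Exposure lasts 18 hr at 37C; LiveBLAzer B/G FRET substrate follows for 2 hr at room temperature.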
# Tags describe the fitted curve by direction and shape or compound fluorescence and quenching.
structure (smiles),measurement,setting,value
CCn1cc(C(=O)O)c(=O)c2cnc(N3CCCC3)nc21,"viability change, negative = cytotoxic",[1],inactive: -3.43% [at 13.2 µM]
O=C1c2ccccc2C(=O)c2cc(O)ccc21,Potency,[2],"inconclusive: 54.5 µM [cytotoxic, partial curve]"
same,Potency,[3],inactive
same,Potency,[4],"inconclusive: 55 µM [cytotoxic, single point]"
same,Potency,[5],"inconclusive: 55 µM [cytotoxic, single point]"
same,Potency,[6],active: 5.45 µM
same,Potency,[7],"inconclusive: 34.4 µM [cytotoxic, partial curve]"
same,Potency,[8],active: 17.2 µM
Brc1ccc(Br)c(Br)c1,Potency,[9],inactive
same,Potency,[10],inactive
same,Potency,[7],inactive
CN(C1CCCCC1)S(=O)(=O)c1ccccc1N,Potency,[11],inactive
same,Potency,[12],inactive
same,Potency,[13],inactive
same,Potency,[1],inactive
same,Potency,[14],inactive
same,Potency,[4],"inconclusive: 30.9 µM [cytotoxic, partial curve]"
same,Potency,[5],"inconclusive: 30.9 µM [cytotoxic, partial curve]"
same,Potency,[15],inactive
O=C(O)CCSSCCC(=O)O,Potency,[1],inactive
CC(C)CCCC(C)N (stereo not given),Potency,[16],inactive
same,Potency,[3],"inconclusive: 16.8 µM [cytotoxic, partial curve]"
COC(OC)(C(=O)c1ccccc1)c1ccccc1,"activity change, negative = inhibition",[9],inconclusive: -11.8%
same,Potency,[16],inactive
same,Potency,[17],inactive
same,Potency,[4],inactive
same,Potency,[15],inactive
same,Potency,[7],inactive
O=C(O)C(=O)Cc1ccccc1,Potency,[18],active: 30.6 µM
Cc1ncc(CO)c(C=O)c1O,Potency,[12],"inconclusive: 15 µM [rising, partial curve, poor fit]"
CNC(=O)NC,Potency,[9],inactive
same,Potency,[3],"inconclusive: 0.499 µM [cytotoxic, single point]"
same,Potency,[17],"inconclusive: 1.12 µM [rising, full curve, poor fit]"
CCOc1ccc(O)cc1,Potency,[19],"inconclusive: 61.1 µM [cytotoxic, single point]"
same,"activity, negative = inhibition",[20],inconclusive: 18.4%
same,Potency,[4],"inconclusive: 4.9 µM [cytotoxic, partial curve]"
same,Potency,[5],"inconclusive: 11 µM [cytotoxic, full curve]"
same,Potency,[8],"inconclusive: 61.1 µM [activator, partial curve, poor fit]"
O=S(=O)(O)c1ccc2cc(O)c(S(=O)(=O)O)cc2c1,Potency,[20],inactive
same,Potency,[11],"inconclusive: 54.9 µM [rising, partial curve, poor fit]"
same,Potency,[16],inactive
same,Potency,[13],inactive
CC(C)CCOC(=O)c1ccc(N(C)C)cc1,Potency,[19],"inconclusive: 29.8 µM [cytotoxic, single point]"
same,Potency,[9],"inconclusive: 2.98 µM [rising, full curve]"
same,Potency,[16],"inconclusive: 23.7 µM [activator, partial curve]"
same,Potency,[12],inactive
same,Potency,[3],inactive
same,Potency,[6],inactive
C=C(C)C(=O)OCC1CCCO1 (stereo not given),Potency,[4],inactive
same,Potency,[7],inactive
same,Potency,[8],"inconclusive: 27.3 µM [activator, single point]"
Cc1cccc2nccnc12,Potency,[15],inactive
CC(C)(C)c1ccc(N)cc1,Potency,[20],inactive
same,Potency,[11],inactive
same,Potency,[1],"inconclusive: 3.47 µM [rising, partial curve, poor fit]"
same,Potency,[10],inactive
Cc1ccccc1N=C(N)N=C(N)N,Potency,[2],inactive
same,Potency,[12],inactive
same,Potency,[1],"inconclusive: 0.0776 µM [rising, full curve, poor fit]"
same,Potency,[17],inactive
CCCCCCCC1CCCC1=O (stereo not given),Potency,[20],inactive
same,Potency,[17],inactive
O=CN1CCOCC1,Potency,[20],inactive
same,Potency,[15],inactive
same,Potency,[8],inactive
CCO[Si](CCCS)(OCC)OCC,Potency,[11],inactive
same,Potency,[12],inactive
same,"ratio activity, negative = inhibition",[13],inconclusive: 22.6%
same,Potency,[5],"inconclusive: 61.6 µM [rising, partial curve, poor fit]"
CCCCOCCOC(=O)COc1cc(Cl)c(Cl)cc1Cl,Potency,[12],inactive
same,Potency,[13],inactive
same,Potency,[7],"inconclusive: 61.1 µM [rising, single point]"
same,Potency,[8],inactive
Cc1cccc(N)n1,"ratio activity, negative = inhibition",[13],inconclusive: 7.38% [at 80.4 µM]
same,Potency,[1],inactive
same,Potency,[6],"inconclusive: 10.3 µM [fluorescent, partial curve]"
CC(C)OCC1CO1 (stereo not given),Potency,[12],"inconclusive: 54.6 µM [activator, single point]"
C/C(=N\O)c1ccc(OCC(=O)N2CCCCC2)cc1,Potency,[11],"inconclusive: 16.9 µM [rising, single point]"
same,Potency,[9],"inconclusive: 1.88 µM [rising, full curve]"
same,Potency,[16],active: 5.96 µM
same,Potency,[7],inactive
CCOc1ccc2nc(N)sc2c1,Potency,[19],"inconclusive: 60.6 µM [cytotoxic, partial curve, poor fit]"
same,Potency,[9],"inconclusive: 15.2 µM [rising, partial curve]"
same,Potency,[6],"inconclusive: 34.1 µM [rising, partial curve]"
same,Potency,[15],"inconclusive: 54 µM [cytotoxic, partial curve, poor fit]"

# From PubChem BioAssay (Tox21)
